Experimental data reported in publication PMC3319807 (Cancer Research, 2012).

Molecular target: T1, His-tagged minimal-binding region of Dmp1 for p53 (M14: amino acids 87–224) (UniProt Q8CE22 87-224)
T1 sequence (looked up): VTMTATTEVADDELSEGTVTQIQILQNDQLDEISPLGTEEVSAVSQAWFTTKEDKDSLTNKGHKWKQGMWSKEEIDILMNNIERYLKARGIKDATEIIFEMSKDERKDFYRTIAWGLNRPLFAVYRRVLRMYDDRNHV
Assay: co-IP

binding result: binds
B1: His-tagged carboxyl-terminal p53 ([…]: Δ1–289) (domain or fragment)
chain: not shown
